Here are results for 65 compounds from PubChem BioAssay (NCI).

Several values for one entry are separate records, joined by “and”; a condition that tells them apart may be missing. Equal values may be shown once.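 Interpolation was linear, between the two tested concentrations surrounding the appropriate level; five concentrations were tested over 48 hours in 96-well plates. Abbreviation: GI50, concentration required for 50% inhibition of growth. TGI marks complete inhibition of growth.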

One may read the TGI as the concentration giving total growth inhibition. A lower TGI goes with greater sensitivity of the cells. A word on the GI50: it is the concentration at which growth is held to half of that of the control.

For the test, the system named is NCI-H322M lung. The test can be described thus: DTP human tumour cell line panel, 48 h.
In turn, `c1ccc(N=C(N2CCOCC2)N(CCN2CCOCC2)c2ccccc2)cc1` returned a TGI of over 100 µM.
`CN1C(=O)CN2C(Cl)(Cl)C2(c2ccccc2F)c2cc([N+](=O)[O-])ccc21` (centres undefined) returned a total growth inhibition concentration (TGI) of over 100 µM.
Turning to `CCN(CC)CCCC(C)Nc1cc(-c2ccc(C(F)(F)F)cc2)c(C#N)c2nc3ccccc3n12` (centres undefined), the GI50 is 3.08 µM and the TGI was found to be 10.6 µM.
Consider `CC1=[N+]([O-])C(C)(C)N(N=O)C1(C)C`, for which the TGI was over 10 µM.
Same read-out and setting: the result for `COc1cc(OC)c2ssc3c(OC)cc(OC)c4ssc1c2-c43` reads over 100 µM.
Regarding `COC(=O)C(Cc1cnc[nH]1)NC(=O)CNC(=O)CCCn1c(=O)c2c3ccccc3n(C)c2n2nnc(-c3ccccc3)c12` (centres undefined), the GI50 is over 100 µM and the TGI is over 100 µM.
As to `CCc1n[nH]c(=O)n1N1C(=O)CCC1=O`, the TGI was over 100 µM.
On the same count and under the same terms, to `CCCCOCn1c(=O)[nH]c(=O)c2ccccc21` belongs over 100 µM.
The same measure, in the same setting: the result for `C=CC(=O)N1C/C(=C\c2ccccc2)C(=O)/C(=C/c2ccccc2)C1` reads 10.7 µM; that for `CCCCCCCCCCCCCCCCOCC(CN(C)CCN(C)C)OCCCCCCCCCCCCCCCC` (centres undefined), over 100 µM.
`C[C@H](N)C(=O)N[C@@H]1[C@H]2C(=C(O)C[C@@H](O)[C@@H]2O)C(=O)O[C@]1(C)C(Cl)Cl`: the concentration for 50% growth inhibition (GI50) is 0.261 µM; the TGI is 2.46 µM and 1.68 µM.
`C/C1=C/C(=O)O[C@@H]2C[C@@H](CC[C@H](C)/C=C\C=C\CC1)O[C@@](O)([C@@H]1CSC(=O)N1CO)C2`: the GI50 was 1.21 µM and the TGI is over 100 µM.
In the case of `O=Cc1ccc(-c2ccc(-c3nc4ccccc4[nH]3)cc2)s1`, the GI50 was 20.1 µM and the TGI came to 57.7 µM.
For `CCCCCCCCCCCCNC(=O)[C@H]1CSC(c2cc3ccccc3s2)N1` (some centres undefined) the same measures were 4.36 µM and 8.6 µM.
`O=C1Oc2ccccc2C(=O)/C1=C/N1C(=O)/C(=C/c2ccc3c(c2)OCO3)SC1=S` came in with a concentration for total growth inhibition (TGI) of over 55.4 µM.
On the same count and under the same terms, to `O=c1[nH]cc(/C=N\Nc2ccccc2)c(=O)[nH]1` belongs over 100 µM; to `Cc1cc2nc3c(C#N)c(-c4ccccc4)/c(=C\Nc4ccc(Cl)cc4)c(=O)n3c2cc1C`, over 100 µM.
Same read-out and setting: to `CC1CN(c2ccc(Cl)cc2)CC(C)(C)OC(=O)O1` (centres undefined) belongs over 100 µM; to `C1CCC(OCc2nnn3c2CCC3)OC1` (centres undefined), over 100 µM.
Still for that read-out and setting: the result for `CC1(C)C=Cc2c(cc3oc4ccc5c(c4c(=O)c3c2O)C=CC(C)(C)O5)O1` reads over 100 µM.
With `CNC(=O)c1c(NC(=O)c2ccc(C(F)(F)F)cc2)sc2c1CCC(=O)C2`, the GI50 is 3.48 µM and the total growth inhibition concentration (TGI) was over 82.4 µM.
On to `C[N+](C)(C)CC(=O)N/N=C(\CCC(=O)NCCc1ccccc1)CC(=O)c1ccccc1`, for which the concentration for total growth inhibition (TGI) is over 100 µM.
With `NC(=O)/C(=C\c1ccncc1)c1cccc2ccccc12`, the total growth inhibition concentration (TGI) is over 100 µM.
Take `Cn1c2c(c3ccccc31)CCN1OCC=C[C@@H](C(=O)O)[C@@H]21`: the concentration for total growth inhibition (TGI) is over 100 µM.
The same measure, in the same setting: the result for `Cc1n[n+](CC(=O)c2ccccc2)c2sc(N)nn12` reads over 100 µM.
Turning to `CCc1c2c(nc3cc4c(c(N)c13)OCO4)-c1cc3c(c(=O)n1C2)COC(=O)[C@]3(O)CC`, the GI50 was 0.0153 µM and 0.0444 µM; the TGI was over 100 µM.
`O=C1Nc2cc(Cl)ccc2N=CC1NC(=O)C(c1ccccc1)c1ccccc1Cl` (centres undefined) returned a TGI of over 100 µM.
The same measure, in the same setting: the result for `CSc1nc(NC2OCC(OC(C)=O)C(OC(C)=O)C2OC(C)=O)c(N=C(C)C(C)=O)c(=O)n1C` (centres undefined) reads over 100 µM; that for `Cc1nn2c(=O)c([N+](=O)[O-])c(/C=C/c3ccco3)nc2s1`, over 100 µM; that for `O=Nc1c(-c2c(O)[nH]c3ccccc23)[nH]c2ccccc12`, 15.3 µM.
The same measure, in the same setting: to `C=CCc1c(C)nc(C)nc1N/N=C/C=C/c1ccccc1` belongs over 100 µM; to `Oc1cccc(-c2ccc3c4c2O[C@H]2c5[nH]c6ccccc6c5C[C@@]5(O)[C@@H](C3)N(CC3CC3)CC[C@]425)c1`, 9.85 µM; to `CCN(CC)C(=S)SNc1ccc(S(N)(=O)=O)cc1`, over 100 µM.
Same read-out and setting: the result for `CCCCCN1CCN(c2ncccn2)CC1` reads over 100 µM; that for `O=C(Cc1nc2ccccc2s1)Nc1ccc(Cl)cc1`, over 100 µM; that for `Cc1ccccc1[P+](C)(c1ccccc1C)c1ccccc1C`, 48.5 µM.
On to `C1=Nc2ccc(cc2)N=Cc2ccccc2OCc2cccc(n2)COc2ccccc21`, for which the total growth inhibition concentration (TGI) was over 100 µM.
The same measure, in the same setting: to `O=C(NO)c1ccc(OCc2cccc(Cl)c2)cc1` belongs 36.3 µM; to `CCOC(=O)C[C@@H](C)[C@]1(C(=O)OC)CCCC1=O`, over 100 µM; to `Sc1ccc2ccccc2c1CNCc1ccccc1`, over 100 µM.
Still for that read-out and setting: the result for `Cc1ccc2[nH]c3c(C)c4c(c(C)c3c2c1)CN(C)C=C4` reads 11.7 µM; that for `C#Cc1c(C)c(/C=C/C(C)=C/C=C/C(C)=C/C(=O)OC)n(C)c1C`, over 100 µM; that for `CO[C@H]1ON=C(c2c(C)cc(C)cc2C)[C@@H]1C1(c2ccccc2)ON=C(c2c(C)cc(C)cc2C)O1` (some centres undefined), over 100 µM.
Same read-out and setting: the result for `O=c1c(-c2ccccc2)c2oc(c1-c1ccccc1)CS(=O)(=O)CCC2` reads over 100 µM; that for `Cc1ccc(/C=N/Nc2nc3ccccc3s2)s1`, over 100 µM.
Compound `COc1ccc2c(c1)CCN=C2Cc1ccccc1CCCl` gave a TGI of over 100 µM.
Turning to `CC1C(=NO)C(C)C(c2ccccc2)N(N=O)C1c1ccccc1` (centres undefined), the total growth inhibition concentration (TGI) was 36.1 µM.
On the same count and under the same terms, the result for `CC(=O)[O-].CC(=O)[O-].O=C(N/N=C/c1cc(Cl)cc(Cl)c1O)c1ccncc1.[Ni+2]` reads over 100 µM; that for `CC(N)C(=O)OCN1C(=O)C2C3C=CC(C2C1=O)C1C2C(=O)N(COC(=O)C(C)N)C(=O)C2C31` (centres undefined), over 100 µM.
On the same count and under the same terms, to `N#CC1(C#N)NC(c2cccnc2)C(C#N)(C#N)NC1c1cccnc1` (centres undefined) belongs over 100 µM.
In the case of `Cc1cc(C(=O)Nc2nc3cccc(Cl)c3n2[C@@H]2CCCCN(C(=O)/C=C/CN(C)C)C2)ccn1`, the GI50 is 0.265 µM and the total growth inhibition concentration (TGI) was 19.4 µM.
For the compound `CCOC(=O)Cc1nc2ccccc2s1`, the TGI came out at 50.4 µM.
Still for that read-out and setting: to `CCOC(=O)CC(=O)C(=O)NNC1=NCCN1` belongs over 100 µM.
Regarding `CCOC(=O)[C@@H]1OC(c2ccccc2)O[C@H]1C(=O)OCC`, the TGI is over 100 µM.
Same read-out and setting: the result for `O=C(Nc1cc2c(=O)[nH]c3ccccc3c2oc1=O)c1cnccn1` reads over 100 µM.
On the same count and under the same terms, to `CCNCCC1(CC)C(=O)NC(=O)NC1=O` belongs over 100 µM.
As for `Cc1cccc(-c2nn3c(c2-c2ccnc4ccc(C(N)=O)cc24)CCC3)n1`, the GI50 is over 100 µM and the TGI was over 100 µM.
The compound `C=CC(CBr)CCC(Br)C(C)(C)Br` (centres undefined) registered a total growth inhibition concentration (TGI) of over 10 µM.
As for `COc1ccc(-c2nsc3c2NC(=O)CC3c2ccc(F)cc2)cc1` (centres undefined), the GI50 was 6.46 µM and the TGI was over 100 µM.
For `CC(C)CCSC1=CC(=O)c2ccccc2C1=O` the same measures were 11.7 µM and over 59.4 µM.
`CC1=CC=C2c3ccccc3C=CN2C(=O)C1` came in with a TGI of over 100 µM.
Compound `CC(=O)OCc1ccc2oc(=O)c(C(=O)Oc3cccc(Cl)c3)cc2c1` returned a TGI of 51.5 µM.
As to `NC(=NCCCC1(c2ccccc2)CCCC1)Nc1ccc(Cl)cc1`, the GI50 is 1.76 µM and the TGI came to 3.42 µM.
For `CCN(CC)c1ccc(C2CC(c3cc(OC)c(OC)c(OC)c3)=NN2)cc1` (centres undefined) the same measures were over 100 µM and over 100 µM.
`NC(=O)NC(=O)CCC(NS(=O)(=O)c1ccccc1)C(=O)NC(N)=O` (centres undefined): the TGI was over 100 µM.
